Data on 134 variants can be found in the supplement of paper PMC7125110.

B1: glmS ribozyme (parent)
chain: AUAAAAGCGCCAGAACUACAGAAAUGUAGUUGACGAGGAGGAGGUUUAUCGAAUUUUCGGCGGAUGCCUCCAAA

± gives the standard error. This sample is rich in variants without activity. Some results are limits rather than exact numbers.

The variants in this series derive from B1. Kind of series: self-cleavage kobs at 10000 uM GlcN6P; higher = faster cleavage; RNA array. The settings on record: with glucosamine-6-phosphate. The method in brief:
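In situ transcription by E. coli RNA polymerase produced barcoded ribozyme variants on sequenced MiSeq chips, and a hybridised Cy3 probe tracked them at 37 °C. Glucosamine-6-phosphate was flowed in at 40 μM to 10 mM in HEPES/KCl/Mg(OAc)2 buffer. kcat and KM were taken from weighted Michaelis–Menten fits of kobs values from exponential decay fits.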
With G38A A42G U49A, the “self-cleavage kobs at 10000 uM GlcN6P” value is under 1e-05 s⁻¹.
As for A14G C58U C71U, the figure is 0.00012 ± 2.1e-05 s⁻¹; as for A15C A42G U47G A53G, 0.000696 ± 9.1e-05 s⁻¹; as for A15G A36G C61U C67G, under 1e-05 s⁻¹.
For the variant A48G C50A G63C, the “self-cleavage kobs at 10000 uM GlcN6P” value is under 1e-05 s⁻¹.
For A36G U46A A52U C67G the value was under 1e-05 s⁻¹; for U30A G59U C71A, under 1e-05 s⁻¹.
As for A33G C50A, the figure is under 1e-05 s⁻¹; as for A39U A48G G60A, under 1e-05 s⁻¹; as for G29A G43U C50G G62A, under 1e-05 s⁻¹.
For G13U G41C A52U the value was under 1e-05 s⁻¹; for G44A U45A C58G, under 1e-05 s⁻¹.
Take A14G A15C A52U A64C C68A: the “self-cleavage kobs at 10000 uM GlcN6P” value is under 1e-05 s⁻¹.
On to A33C A39C G62U G66C C70A, for which the “self-cleavage kobs at 10000 uM GlcN6P” value is under 1e-05 s⁻¹.
For A33G C34U C50G C67U the value was 0.000194 ± 3.6e-05 s⁻¹; for A36U G38U, under 1e-05 s⁻¹.
As for A15C G35A U46G, the “self-cleavage kobs at 10000 uM GlcN6P” value is under 1e-05 s⁻¹.
For G40C G43A A48C U65G the value was under 1e-05 s⁻¹; for U30C U45G A48G C71G, under 1e-05 s⁻¹; for A14G A64G C68G, under 1e-05 s⁻¹.
As for U49C G66U C71U, the “self-cleavage kobs at 10000 uM GlcN6P” value was under 1e-05 s⁻¹.
As for G32U G35C U46A, the figure is under 1e-05 s⁻¹; as for G32A G37C G41U, under 1e-05 s⁻¹.
As to U31G G41C G43A C50U G51U, the “self-cleavage kobs at 10000 uM GlcN6P” value is under 1e-05 s⁻¹.
For U56G U57G, the “self-cleavage kobs at 10000 uM GlcN6P” value is under 1e-05 s⁻¹.
In the case of G29A G40A G41U A52G, the “self-cleavage kobs at 10000 uM GlcN6P” value was under 1e-05 s⁻¹.
As for A15C A36C C67G, the figure is under 1e-05 s⁻¹; as for A15C G32C C34U A52G A53U C67U, under 1e-05 s⁻¹.
As for A42U A64C C70U C71U, the figure is under 1e-05 s⁻¹; as for U30G G38A U46G C50A G59C C71U, under 1e-05 s⁻¹.
As to U31C A53G G60C C70G, the “self-cleavage kobs at 10000 uM GlcN6P” value was under 1e-05 s⁻¹.
With C16G G59A C71G, the “self-cleavage kobs at 10000 uM GlcN6P” value was under 1e-05 s⁻¹.
As for C16U G38A A52G C71G, the figure is under 1e-05 s⁻¹.
For the variant U30C A36C G44U U47C, the “self-cleavage kobs at 10000 uM GlcN6P” value was under 1e-05 s⁻¹.
For U30C G35U G43U G66U the value was under 1e-05 s⁻¹.
For A15U U31C G38U G44A G51U C71U the value was under 1e-05 s⁻¹; for U49C C50U U56C, under 1e-05 s⁻¹; for A33U G41U C58G, under 1e-05 s⁻¹.
G37C U57G G62U A64C: the “self-cleavage kobs at 10000 uM GlcN6P” value is under 1e-05 s⁻¹.
As for G51C G63U U65G C67G, the figure is under 1e-05 s⁻¹; as for C34A G35A A39G A42G G51A, under 1e-05 s⁻¹.
In the case of A39C G44A U54G A64G, the “self-cleavage kobs at 10000 uM GlcN6P” value is under 1e-05 s⁻¹.
U30C G40A U56A G62C: the “self-cleavage kobs at 10000 uM GlcN6P” value is under 1e-05 s⁻¹.
As to A15G G62C, the “self-cleavage kobs at 10000 uM GlcN6P” value was under 1e-05 s⁻¹.
As for C34A G44C G66U C71G, the figure is under 1e-05 s⁻¹; as for A36C A48U G63A, under 1e-05 s⁻¹; as for U55C U69A C70U, under 1e-05 s⁻¹.
A33U A53U G59U: the “self-cleavage kobs at 10000 uM GlcN6P” value is under 1e-05 s⁻¹.
As for G32C A36C G51C, the figure is under 1e-05 s⁻¹; as for U31G G40C G43A, under 1e-05 s⁻¹.
As to G29C U31C C34G A53C, the “self-cleavage kobs at 10000 uM GlcN6P” value was under 1e-05 s⁻¹.
For C19A C34G the value was under 1e-05 s⁻¹; for U45A A53G U55A U65A C67A, 0.000759 ± 0.00025 s⁻¹.
As for G40A U57A C61G, the figure is under 1e-05 s⁻¹.
For A39G U56G C68U the value was 0.00322 ± 0.0012 s⁻¹.
With G32U A53G C67G, the “self-cleavage kobs at 10000 uM GlcN6P” value was 0.000238 ± 3.8e-05 s⁻¹.
Regarding U49G G60U A64C, the “self-cleavage kobs at 10000 uM GlcN6P” value is under 1e-05 s⁻¹.
For A39C G44C G60U, the “self-cleavage kobs at 10000 uM GlcN6P” value is under 1e-05 s⁻¹.
As for G51U U56A U65G, the figure is under 1e-05 s⁻¹; as for A36C G38C A64C, under 1e-05 s⁻¹; as for A36C A52U C58U G63A, under 1e-05 s⁻¹.
U31A A42U A64U: the “self-cleavage kobs at 10000 uM GlcN6P” value is under 1e-05 s⁻¹.
In the case of A33G U56A C67A, the “self-cleavage kobs at 10000 uM GlcN6P” value is under 1e-05 s⁻¹.
As for G37A G60U G66A C70U, the “self-cleavage kobs at 10000 uM GlcN6P” value is under 1e-05 s⁻¹.
As for A48G U49G, the figure is 5.7e-05 ± 2.1e-05 s⁻¹; as for U55C C61A, under 1e-05 s⁻¹; as for C50G U54C C71U, 4.14e-05 ± 1.5e-05 s⁻¹.
As for G41U C67G C68A, the figure is 0.000314 ± 0.00012 s⁻¹; as for A33G A39G G44A G51A, under 1e-05 s⁻¹.
In the case of G32U C34A G37U, the “self-cleavage kobs at 10000 uM GlcN6P” value was under 1e-05 s⁻¹.
Turning to A33C G38A C58A, the “self-cleavage kobs at 10000 uM GlcN6P” value is under 1e-05 s⁻¹.
For G32C U47A A48C U57G C61G the value was under 1e-05 s⁻¹; for U47C G51A U57G, under 1e-05 s⁻¹.
For C19A G35C U47C U49G G51U C68U C71U, the “self-cleavage kobs at 10000 uM GlcN6P” value is under 1e-05 s⁻¹.
Turning to A42C U46A U57C G62C, the “self-cleavage kobs at 10000 uM GlcN6P” value is under 1e-05 s⁻¹.
For A14C A36C G59A G66U the value was under 1e-05 s⁻¹; for C34A G35A U56A G63C, under 1e-05 s⁻¹.
For A42C U46C U49G U54A the value was under 1e-05 s⁻¹.
As for G40A C50A U56C, the figure is under 1e-05 s⁻¹.
On to G29C A33U G41A U47G, for which the “self-cleavage kobs at 10000 uM GlcN6P” value is under 1e-05 s⁻¹.
For G29U A48U U49G the value was under 1e-05 s⁻¹; for G32A G37U G40A U46G C50U U57C, under 1e-05 s⁻¹; for C34G G35U, under 1e-05 s⁻¹.
As for U31C A48U A52C, the figure is under 1e-05 s⁻¹; as for G32C U46A C68U C71U, under 1e-05 s⁻¹; as for G32C A33U G37C U56A, under 1e-05 s⁻¹.
For G29C A33U G38U C68A the value was under 1e-05 s⁻¹.
Turning to A14C G40C G63A C68U C70A, the “self-cleavage kobs at 10000 uM GlcN6P” value is under 1e-05 s⁻¹.
As for G41A C61U A64G C71U, the figure is under 1e-05 s⁻¹; as for A48U U49A U56C, under 1e-05 s⁻¹.
As for A33G G60C C70G, the figure is under 1e-05 s⁻¹; as for U49A U65G C67G U69A, under 1e-05 s⁻¹; as for U30G A39C U56A C70G, under 1e-05 s⁻¹.
Consider A36C G37C A52G, for which the “self-cleavage kobs at 10000 uM GlcN6P” value was under 1e-05 s⁻¹.
As for A15U G37C G60U, the figure is under 1e-05 s⁻¹; as for G51U U55C C67U U69G, under 1e-05 s⁻¹.
For G29C A36C G63A, the “self-cleavage kobs at 10000 uM GlcN6P” value is under 1e-05 s⁻¹.
As for G35A A52C A53C, the figure is under 1e-05 s⁻¹; as for A23G U46G G59C, under 1e-05 s⁻¹.
With A15C G29U A33C G38U C70G, the “self-cleavage kobs at 10000 uM GlcN6P” value was under 1e-05 s⁻¹.
For G37A U46G G59C the value was under 1e-05 s⁻¹; for G38U G43C A53C C68A, under 1e-05 s⁻¹; for U31A G32U G41U C68U C71U, under 1e-05 s⁻¹.
For G32U C50A the value was under 1e-05 s⁻¹; for C34G A36C A52G, under 1e-05 s⁻¹; for G32A U57C G62A C67G, under 1e-05 s⁻¹.
As for G44C U45A G62U, the figure is under 1e-05 s⁻¹.
In the case of G40U G43C U65A, the “self-cleavage kobs at 10000 uM GlcN6P” value is under 1e-05 s⁻¹.
A33G A42C U47C G60A: the “self-cleavage kobs at 10000 uM GlcN6P” value was under 1e-05 s⁻¹.
Consider A15U U30G A48U A53G, for which the “self-cleavage kobs at 10000 uM GlcN6P” value was 0.000112 ± 3.6e-05 s⁻¹.
For G38A G44C C58U the value was under 1e-05 s⁻¹; for U47C G51U G62C, under 1e-05 s⁻¹; for A15U C16A A39U, 0.000273 ± 6.1e-05 s⁻¹.
For C16U A53U G62U C71G the value was under 1e-05 s⁻¹; for A48G C61G C68U, under 1e-05 s⁻¹; for U46A G62C C71U, under 1e-05 s⁻¹.
For A33G A52G the value was under 1e-05 s⁻¹; for A33C G41U A64G, under 1e-05 s⁻¹.
For A33G G41U G43U A53G U57A C71A, the “self-cleavage kobs at 10000 uM GlcN6P” value was under 1e-05 s⁻¹.
For G62U C68A the value was under 1e-05 s⁻¹; for A36U A39C C71U, under 1e-05 s⁻¹; for A14C A39C C70G, under 1e-05 s⁻¹.
For G37U C71A the value was under 1e-05 s⁻¹.
Turning to G35C C61U C70U, the “self-cleavage kobs at 10000 uM GlcN6P” value was under 1e-05 s⁻¹.
As for G44C U57G, the figure is under 1e-05 s⁻¹; as for G32U G35U G44A C70A, under 1e-05 s⁻¹.
A15U C34U C71A: the “self-cleavage kobs at 10000 uM GlcN6P” value is under 1e-05 s⁻¹.
For A39C U55G C70U the value was 0.000211 ± 4e-05 s⁻¹; for G41A C61U A64C, under 1e-05 s⁻¹; for U30C U31A G40U U56C C61A C71A, under 1e-05 s⁻¹.
As for G32U A33C G37C, the figure is under 1e-05 s⁻¹.
As for A15G G51U C71U, the figure is under 1e-05 s⁻¹.
Turning to U46A U47G A48G A52U C58U C68G, the “self-cleavage kobs at 10000 uM GlcN6P” value is under 1e-05 s⁻¹.
C16A G35U G60U: the “self-cleavage kobs at 10000 uM GlcN6P” value was under 1e-05 s⁻¹.
